# Measured values: PubChem BioAssay AID588855 (National Center for Advancing Translational Sciences (NCATS), 2011)
# Out of some 410,000 compounds screened, about 5,000 (1.2%) were called active. The inconclusive results got no clear call from the source; some entries with a clear call stand among them for comparison. Calls follow the shape of the dose curve; as a rule, active = well fitted inhibition curve with a large enough effect; inconclusive = small, poorly fitted or top-dose-only effect; inactive = no such curve, though single readings can be large or run the other way. Potencies beside an inconclusive call are fits to weak or partial responses and may not hold up.
# Assay: qHTS for Inhibitors of TGF-b; also: nearly all actives have a fitted effect of over 65% in size
# Details: HepG2 CAGA-GFP TGF-b/SMAD3 reporter, GFP fluorescence, 18 h, TGF-beta stimulated, 500 pg/mL final; series mostly up to 46.1 µM
# Method in brief: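 GFP signal (ex488/em500-530) from TGF-beta-stimulated HEPG2 CAGA-GFP cells, 500 pg/mL final, 18 h at 37 degrees C in DMEM plus 1% FBS, normalized to unstimulated and DMSO-stimulated controls.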
# Potency is read from the fitted curve at half-maximal effect; tags tell the direction and shape of the fitted curve.
row,Compound,Potency
1,O=C(NC(c1ccc(Cl)cc1)c1ccsc1)C1CCN(Cc2cccc(Cl)c2)CC1 (configuration not stated),"inconclusive: 28.2 µM [inhibitor, single point]"
2,C/C(=N\N=C(/N)SC1CC(=O)N(c2ccc(Cl)cc2)C1=O)c1cccs1 (configuration not stated),"inconclusive: 35.5 µM [inhibitor, single point]"
3,COc1ccc(S(=O)(=O)NC2CCN(Cc3ccccc3)CC2)cc1NC(C)=O,inactive
4,CCN1CCC(N(Cc2ccc(F)cc2)C(=O)Nc2cccc(C(F)(F)F)c2)CC1,"inconclusive: 35.5 µM [inhibitor, single point]"
5,Cc1cc(C)cc(NS(=O)(=O)c2ccc3c(c2)C(C)(C)C(=O)N3C)c1,"inconclusive: 6.31 µM [inhibitor, single point]"
6,CCc1ccccc1Nc1nn2c(=O)c3ccc(C(=O)Nc4ccc(OC)cc4)cc3nc2s1,"inconclusive: 5.62 µM [inhibitor, single point]"
7,CNC(=O)CSc1nc2cccnc2n1-c1ccc(F)cc1,inactive
8,O=C(O)C1=CC[C@@H](c2ccc(Cl)cc2)N(S(=O)(=O)c2ccc(Cl)cc2)[C@H]1c1ccccc1,"inconclusive: 22.4 µM [inhibitor, single point]"
9,CCOC(=O)C1=C(C)NC(=O)NC1c1cn(-c2ccccc2)nc1-c1cccs1 (configuration not stated),"inconclusive: 35.5 µM [inhibitor, single point]"
10,COc1ccccc1N1CCN(C(=O)c2c(C)cc(=O)oc2C)CC1,inactive
11,Cc1noc(NS(=O)(=O)c2ccc(NC(=O)c3ccc(Br)cc3)cc2)c1C,inactive
12,CC(=O)Nc1ccc(C(=O)N/C(=C/c2ccccc2)C(=O)NCc2ccco2)cc1,"inconclusive: 3.16 µM [inhibitor, single point]"
13,O=C(Nc1ccccc1Cl)c1cc(C2CCCN(C(=O)c3cccs3)C2)on1 (configuration not stated),inactive
14,O=C(N[C@@H](Cc1ccc(Br)cc1)C(=O)O)OCC1c2ccccc2-c2ccccc21,"inconclusive: 12.6 µM [inhibitor, single point]"
15,CCOc1ccc(CCNC(=O)c2cc(-c3ccccc3)c(N3CCOCC3)s2)cc1,inactive
16,CCN(CC)S(=O)(=O)c1cccc(NC(=O)C2SC(=Nc3ccc(C)cc3C)C(C(=O)NC(C)COC)=C2N)c1 (configuration not stated),"inconclusive: 35.5 µM [inhibitor, single point]"
17,CC1CCN(CCC(=O)Nc2ccc3c(c2)CCC3)CC1,"inconclusive: 3.16 µM [inhibitor, single point]"
18,COc1cccc(C2C(=O)N(C3CCCCC3)CC(=O)N2Cc2ccc(Cl)cc2)c1 (configuration not stated),"inconclusive: 4.47 µM [inhibitor, full curve, poor fit]"
19,O=C(COc1ccccc1C(=O)N/N=C\c1ccc(O)c(O)c1)N/N=C/c1ccc(O)c(O)c1,"inconclusive: 35.5 µM [inhibitor, single point]"
20,CCOc1ccc(NS(=O)(=O)c2ccc(C)c(C(=O)NCCCn3ccnc3)c2)cc1,inactive
21,c1ccc2oc(C3=NNC(=NC4CC4)SC3)cc2c1,"inconclusive: 10 µM [inhibitor, partial curve]"

row,Compound,Potency
1,COc1cccc(-c2nc3c(c(C)nn3-c3ccccc3)c3cc(OC)c(OC)cc23)c1,"inconclusive: 3.16 µM [inhibitor, single point]"
2,CCCCN(C(=O)c1c(CC)noc1C)c1c(N)n(CCC)c(=O)[nH]c1=O,"inconclusive: 6.31 µM [inhibitor, single point]"
3,CCC(=O)Nc1ccccc1-c1nc2ccccc2n(C(C)C(=O)Nc2ccc(OC)cc2)c1=O (configuration not stated),"inconclusive: 0.112 µM [inhibitor, full curve, poor fit]"
4,CC(=O)Nc1ccc(S(=O)(=O)NCCc2cc3ccc(C)c(C)c3[nH]c2=O)cc1,"inconclusive: 10 µM [inhibitor, partial curve, poor fit]"
5,N#CC(C#N)=Cc1cc2ccccc2nc1N1CCOCC1,"inconclusive: 35.5 µM [inhibitor, single point]"
6,Fc1ccccc1CNCc1ccc2c(c1)OCO2,inactive
7,O=C(Nc1ccc(Br)cc1)c1cccc(OC(=S)N2CCOCC2)c1,"inconclusive: 35.5 µM [inhibitor, single point]"
8,O=C(CSc1nnc(COc2ccccc2Cl)o1)NC(=O)NCc1ccco1,inactive
9,CCCC(c1nnnn1C(C)(C)C)N1CCN(c2ccccc2)CC1 (configuration not stated),inactive
10,Cc1cc(Br)ccc1OCC(=O)NNC(=O)c1cnccn1,"inconclusive: 5.62 µM [inhibitor, single point]"
11,COc1ccc(C)cc1S(=O)(=O)NCC(c1ccc(N(C)C)cc1)N1CCc2ccccc21 (configuration not stated),inactive
12,COc1ccc(/C=C(/CC(=O)NCc2ccc(Cl)cc2)c2nc3ccccc3s2)cc1,inactive
13,Cc1cc(Cl)c(S(=O)(=O)N2CCSCC2)cc1OCC(=O)NC1CCCCC1,"inconclusive: 0.355 µM [inhibitor, full curve, poor fit]"
14,Cc1ccc(Cl)cc1NC(=O)CCCN1C(=O)CCn2nc(-c3cn(C)c4ccccc34)cc21,"inconclusive: 0.224 µM [inhibitor, full curve, poor fit]"
15,Cc1ccc(C)c(N2CCN(C(=O)c3cc4sccc4n3C)CC2)c1,"inconclusive: 35.5 µM [inhibitor, partial curve, poor fit]"
16,CCc1ccc(OCC(=O)Nc2ccc(-c3cc4ccccc4oc3=O)c(OC)c2)cc1,"inconclusive: 11.2 µM [inhibitor, partial curve]"
17,CC1(C)C=Cc2c(ccc3c2OC[C@@H](c2ccc(O)cc2O)C3)O1,"inconclusive: 11.2 µM [inhibitor, single point]"
18,COc1ccc(-c2c(-c3ccccc3OC)sc3ccccc23)cc1C=O,"inconclusive: 22.4 µM [inhibitor, single point]"
19,CCOc1ccc(S(=O)(=O)n2nc(C)c(S(=O)(=O)N3CCOCC3)c2C)cc1,inactive
20,Cc1nc(N2CCC(C)CC2)c2c(C)c(C(=O)Nc3ccccc3C(F)(F)F)sc2n1,inactive
21,COc1ccc(S(=O)(=O)NCc2cccs2)cc1,"inconclusive: 35.5 µM [inhibitor, single point]"
